Data on 97 compounds can be found in paper PMC6919601, “Identification of Plasmodium dipeptidyl aminopeptidase allosteric inhibitors by high throughput screening” (PLoS ONE, 2019).

Structures are written as SMILES. Among all 110,000 compounds or so, about 230 (0.21%) showed an effect of 50% or more. The list shows a part of the results.
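Also: 30 min substrate incubation versus DMSO and 10 µM JCP410 controls.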

For this assay, the target named is DPAP1 (Plasmodium falciparum, UniProt Q8IIJ9). In words: primary screen, percent inhibition; read by cleavage of a fluorogenic dipeptide substrate; higher = more effect of the substance. More on the design: species or system P. falciparum D10 trophozoite lysates; single well.
DPAP1, sequence (Q8IIJ9 whole entry, looked up): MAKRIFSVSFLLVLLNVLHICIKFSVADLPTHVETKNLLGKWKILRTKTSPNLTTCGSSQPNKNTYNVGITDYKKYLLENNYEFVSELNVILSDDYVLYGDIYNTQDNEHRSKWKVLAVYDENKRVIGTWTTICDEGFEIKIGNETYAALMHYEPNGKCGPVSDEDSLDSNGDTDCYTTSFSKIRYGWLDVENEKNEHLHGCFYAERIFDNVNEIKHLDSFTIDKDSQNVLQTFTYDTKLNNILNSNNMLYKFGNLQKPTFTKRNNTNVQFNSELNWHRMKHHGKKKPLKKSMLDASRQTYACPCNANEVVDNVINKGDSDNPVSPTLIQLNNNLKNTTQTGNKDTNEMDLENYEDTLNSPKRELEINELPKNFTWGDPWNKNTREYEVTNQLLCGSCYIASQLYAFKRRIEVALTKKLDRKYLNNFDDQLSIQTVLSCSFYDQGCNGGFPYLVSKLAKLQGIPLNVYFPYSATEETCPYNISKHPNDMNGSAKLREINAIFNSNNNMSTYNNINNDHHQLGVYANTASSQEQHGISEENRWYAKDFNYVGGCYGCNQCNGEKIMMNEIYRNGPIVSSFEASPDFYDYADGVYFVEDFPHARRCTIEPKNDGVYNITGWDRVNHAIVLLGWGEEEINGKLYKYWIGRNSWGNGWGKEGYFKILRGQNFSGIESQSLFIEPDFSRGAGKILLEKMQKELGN
Regarding `Cc1cc(C(=O)CSc2nnc3ccccn23)c(C)n1-c1ccc(F)cc1`, the “% Inhibition @ 10 uM” value came to 0.778%. Regarding `CCn1cc(Cl)c(C(=O)Nc2ccc(Cn3cccn3)cc2)n1`, the “% Inhibition @ 10 uM” value was determined as 3.05%.

`CC(CNC(=O)C1CCCN(c2nnc(-n3cccc3)s2)C1)c1ccccc1` (stereo not shown): the “% Inhibition @ 10 uM” value was 2.76%. Then `N#CCNC(=O)[C@@H](NC(=O)OCc1ccccc1)C1CCCCC1`, with -1.41%.

On to `CCCn1c2ccccc2n2c(C(=O)OCC)c(C)nc12`, for which the “% Inhibition @ 10 uM” value is listed as 0.345%. With `OCC(C#CCN1CCOCC1)NCc1ccccc1` (stereo not shown), the “% Inhibition @ 10 uM” value came to 1.7%. Take `O=C(O)c1ccc2c(c1)C(=O)N(c1ccccc1C(=O)O)C2=O`: the “% Inhibition @ 10 uM” value is 1.27%.

On to `CN(C)c1ccc(C2CC(c3ccc(Br)cc3)=NN2C(=O)CCC(=O)O)cc1` (stereo not shown), for which the “% Inhibition @ 10 uM” value is listed as -0.941%. On to `COc1ccc(C(=O)N2CCN(Cc3ccccc3)CC2)cc1OC`, for which the “% Inhibition @ 10 uM” value turned out to be 12.5%. Consider `O=C(C1CCN(S(=O)(=O)N2CCC3(CC2)OCCO3)CC1)N1CCC(Cc2ccccc2)CC1`, for which the “% Inhibition @ 10 uM” value is recorded as -1.21%.

Take `Cc1ccc(CNC(=O)c2ccco2)cc1`: the “% Inhibition @ 10 uM” value amounted to 0.749%. Take `Cc1ccc(NC(=O)C2CC(=O)N=C(N3CCCCC3)N2)cc1Cl` (stereo not shown): the “% Inhibition @ 10 uM” value was determined as 2.13%.

For `Cc1cc(C)n2c(N)c(-c3ccc(F)cc3)nc2c1`, the “% Inhibition @ 10 uM” value is on record as 4.57%. Regarding `CCOc1cc2c(cc1OCC)C1C(C(=O)N3CCCC3)c3ccccc3C(=O)N1CC2` (stereo not shown), the “% Inhibition @ 10 uM” value is listed as -1.59%.

Turning to `N#C/C(=C\c1ccc(F)cc1)c1nc(-c2ccc(Cl)cc2)cs1`, the “% Inhibition @ 10 uM” value was -0.771%. As for `CCOc1cc(C2C(C#N)=C(N)OC3=C2C(=O)CCC3)ccc1OC(F)F` (stereo not shown), the “% Inhibition @ 10 uM” value is on record as -2.68%. For the compound `CC1=C(C(=O)OCCOc2ccccc2)C(c2ccccc2C(F)(F)F)CC(=O)N1` (stereo not shown), the “% Inhibition @ 10 uM” value worked out at 0.8%. For the compound `CCOc1ccc(-c2nc3s/c(=C\c4ccccc4OC)c(=O)n3n2)cc1`, the “% Inhibition @ 10 uM” value is listed as 0.487%. `COc1ccc(Cn2c(=O)n(Cc3ccccc3)c(=O)c3oc4ccccc4c32)cc1`: the “% Inhibition @ 10 uM” value is listed as -1.39%. As for `O=C(Cc1noc2ccccc12)N1CCC(Cc2ccccc2)CC1`, the “% Inhibition @ 10 uM” value is reported as -5.37%. `N#CCCC(=O)C(Cc1ccccc1Cl)NC(=O)OCc1ccccc1` (stereo not shown): the “% Inhibition @ 10 uM” value is listed as 15.8%. For the compound `CCC1C(=O)CC(c2ccccc2)NC1c1ccccc1` (stereo not shown), the “% Inhibition @ 10 uM” value is -5.94%.

Consider `N#CCc1ccc(NC(=O)c2ccc(F)cc2)cc1`, for which the “% Inhibition @ 10 uM” value turned out to be 1.57%. The value for `Cc1ccc(C)c(Cn2c(C(=O)O)c(CNCCc3ccc(Cl)cc3)c3ccccc32)c1` was -3.21%; that for `CC1=CC(C)C2(CO)COC(C(C)C)C1C2C` (stereo not shown) was -0.13%; that for `CC1=C(c2ccc(C)c(C)c2)S(=O)(=O)N=C1NCC(=O)NCc1ccccc1Cl` was -1.75%. Consider `O=C(Nc1cccc(Cl)c1)N(CCCN1CCOCC1)Cc1cccc2ccccc12`, for which the “% Inhibition @ 10 uM” value is recorded as 5.24%.

`COCCNC(=O)C1CC(c2ccc(OC)cc2)=NO1` (stereo not shown): the “% Inhibition @ 10 uM” value was 4.74%. The value for `Cc1ccc(C2=N/C(=C\C(Cl)=C\c3ccccc3)C(=O)O2)cc1` was 0.0855%; that for `COc1ccc(CCNC(=O)Cc2c(C)c3cc4c(C)coc4c(C)c3oc2=O)cc1OC` was 5.68%; that for `CN(CC(=O)N1CCN(c2ccccc2F)CC1)S(=O)(=O)c1cc(Cl)ccc1Cl` was -2.29%. Consider `CCOc1ccc(C2C(C#N)=C(N)N(c3ccc(OC)cc3)C3=C2C(=O)CCC3)cc1` (stereo not shown), for which the “% Inhibition @ 10 uM” value is 4.65%. The value for `O=C(c1ccco1)N1CCN(C(=O)C2CCCN(c3ncnc4c3nc3n4CCCCC3)C2)CC1` (stereo not shown) was 3.05%; that for `COc1ccc(S(=O)(=O)Nc2cccc(-c3cn4ccsc4n3)c2)cc1` was -2.24%; that for `O=C(c1[nH]c2ccccc2c1Sc1ccc(Cl)cc1)N1CCOCC1` was 0.0811%. `O=C1CC(N2CCN(C/C=C/c3ccccc3)CC2)C(=O)N1c1ccc(F)cc1` (stereo not shown): the “% Inhibition @ 10 uM” value is listed as -3.04%. For the compound `COCCNC(=O)c1ccc2c(c1)c(C)c(C)n2Cc1ccc(F)cc1`, the “% Inhibition @ 10 uM” value is reported as -6.64%. Regarding `CC1CC(C)CN(CCCNC(=O)c2csc3c2CCCC3)C1` (stereo not shown), the “% Inhibition @ 10 uM” value is reported as -1.44%. Consider `O=C(Nc1ccc(N2CCOCC2)cc1)c1cccc(S(=O)(=O)N2CCCC2)c1`, for which the “% Inhibition @ 10 uM” value was found to be 0.389%. Then `COc1ccc2nc3c(O)n(C)c(SCc4ccccc4C)nc-3c2c1`, with -3.85%; and `CN1CCN(C(=O)c2sc3ccccc3c2Cl)CC1`, with 0.78%; and `C#CCOc1c(Br)cc(C2C(C#N)=C(N)OC3=C2C(=O)CC(C)(C)C3)cc1OC` (stereo not shown), with 0.726%. Consider `CCn1c2ccccc2c2cc(CN(C)CCN(C)C)ccc21`, for which the “% Inhibition @ 10 uM” value is on record as -3.27%. For the compound `CCCCN(C)C(=O)C(c1ccccc1)c1ccccc1`, the “% Inhibition @ 10 uM” value is listed as -2.42%. On to `CCOc1ccc(N(C(C)C(=O)N2CCN(c3ccccc3OC)CC2)S(C)(=O)=O)cc1` (stereo not shown), for which the “% Inhibition @ 10 uM” value came out at 4.08%. For `Cc1cc(C)c2c(CC(=O)Nc3ccccc3)coc2c1`, the “% Inhibition @ 10 uM” value came out at 0.214%. For `O=C(CSc1ccnc2cc(Cl)ccc12)c1ccc2c(c1)OCO2`, the “% Inhibition @ 10 uM” value is listed as 2.77%. Consider `O=[N+]([O-])c1c(NCc2ccccc2)cc(N2CCCCCC2)c2nonc12`, for which the “% Inhibition @ 10 uM” value is given as -0.636%.

In the case of `Cc1ccccc1C(=O)Nc1ccccc1NC(=O)c1ccccc1C`, the “% Inhibition @ 10 uM” value was found to be 0.408%. Turning to `CC(C)NC(=O)c1cc(-c2ccccc2O)on1`, the “% Inhibition @ 10 uM” value is reported as -1.29%. On to `C/C=C/Cn1c(SC/C=C(/C)Cl)nc2c1c(=O)[nH]c(=O)n2C`, for which the “% Inhibition @ 10 uM” value is listed as -0.25%. For the compound `COc1cc(C2SCC(=O)N2CCc2ccc(OC)c(OC)c2)ccc1O` (stereo not shown), the “% Inhibition @ 10 uM” value is given as 3.65%. Regarding `Cc1c(CNC(=O)c2cc3n(n2)C(C(F)(F)F)CC(c2ccc4c(c2)OCO4)N3)cnn1C` (stereo not shown), the “% Inhibition @ 10 uM” value was -1.79%. For the compound `Cc1cc(=O)oc2cc(OCC(=O)NC3CCCCCC3)ccc12`, the “% Inhibition @ 10 uM” value is recorded as 4.1%. Then `CCOc1ccc(/C=C/C(O)=C2\C(=O)Oc3ccccc3C2=O)cc1`, with -6.91%; and `CCN1C(=O)N/C(=C/c2ccc(OC(C)C)c(OC)c2)C1=O`, with 2.48%; and `COc1ccccc1CNC(=O)Cn1c2ccccc2c2cnnc(O)c21`, with -2%. Regarding `CC(C)CCOc1ccc2c(-c3ccccc3)cc(=O)oc2c1`, the “% Inhibition @ 10 uM” value came to 1.04%. For the compound `O=C(O)C1C2CCC(C2)C1C(=O)Nc1ccc2c(c1)OCO2` (stereo not shown), the “% Inhibition @ 10 uM” value is on record as -1.32%.

`O=C(Nc1ccc2c(c1)oc1ccccc12)c1ccncc1`: the “% Inhibition @ 10 uM” value stood at 0.0345%. As to `Cc1sc(NC(=O)c2ccco2)c(C(c2cccnc2)N2CCN(CCO)CC2)c1C` (stereo not shown), the “% Inhibition @ 10 uM” value was 1.96%. As to `O=C(c1cccs1)N1CCN(C23CC4CC(CC(C4)C2)C3)CC1`, the “% Inhibition @ 10 uM” value is -5.48%. The value for `N=C1/C(=C/c2ccc(-c3ccccc3)o2)C(=O)N=C2SC=C(c3ccccc3)N12` was -1.93%; that for `Cc1csc(NC(=O)c2cccn(OCc3ccccc3)c2=O)n1` was -3.44%; that for `CCn1c2ccccc2c2cc(CNc3ccc4c(c3)CCC4)ccc21` was 5.01%. Consider `CCN(CC)CCN(C)Cc1ccccc1Cl`, for which the “% Inhibition @ 10 uM” value is -1.56%. Consider `CCCC(=O)N(c1ccccc1)C1CC(C)Nc2ccccc21` (stereo not shown), for which the “% Inhibition @ 10 uM” value was 1.41%. For `CCCOC(=O)C1=C(C)NC(=O)NC1c1ccccc1` (stereo not shown), the “% Inhibition @ 10 uM” value is listed as -2.35%. As to `COc1ccc(Br)cc1CN1CCN(C(=O)c2ccccc2)CC1`, the “% Inhibition @ 10 uM” value was -12.3%. As to `Cc1cc(Cl)ccc1N(CC(=O)N1CCCCC1)S(C)(=O)=O`, the “% Inhibition @ 10 uM” value is -5.85%.

As for `CC(C)Cc1n[nH]c(SCC(=O)Nc2nnc(CC(C)C)s2)n1`, the “% Inhibition @ 10 uM” value worked out at 3.16%.

Consider `Cc1ccc2c(c1)[C@H]1OCC[C@H]1[C@@H](c1ccncc1)N2`, for which the “% Inhibition @ 10 uM” value is -0.872%. For the compound `O=C(Nc1cc(C(F)(F)F)ccc1F)C12CC3CC(C1)CC(n1cncn1)(C3)C2`, the “% Inhibition @ 10 uM” value is -3.37%.

With `CCC(CC)COC(=O)C1=C(C)NC(=O)NC1c1cccc(F)c1` (stereo not shown), the “% Inhibition @ 10 uM” value is on record as 0.878%. On to `Cc1cccn2c(=O)c3cc(C(=O)N4CCC(Cc5ccccc5)CC4)n(C)c3nc12`, for which the “% Inhibition @ 10 uM” value is -0.659%. The value for `O=C(CCn1ccc2cc(S(=O)(=O)N3CCCC3)ccc21)NCCC1=CCCCC1` was -2.12%; that for `Cc1cc(C)cc(OCC(=O)Nc2nc(-c3ccc(S(=O)(=O)N4CCOCC4)cc3)cs2)c1` was 5.99%; that for `COc1ccc(/C=C2/NC(=O)N(Cc3ccccc3F)C2=O)cc1O` was 2.92%.

`CC(=O)Nc1ccc(S(=O)(=O)Nc2c(C)nn(Cc3ccc(Cl)c(Cl)c3)c2C)cc1`: the “% Inhibition @ 10 uM” value turned out to be 9.65%. The value for `COc1ccc(OCC(=O)N2CCN(C(=O)c3ccco3)CC2)cc1` was 1.91%; that for `Cc1ccc(S(=O)(=O)NC(C(=O)O)C(C)O)cc1` (stereo not shown) was 5.54%. As for `CN(C)S(=O)(=O)c1ccc(C(=O)Nc2cc(C(F)(F)F)cc(C(F)(F)F)c2)cc1`, the “% Inhibition @ 10 uM” value is on record as -0.795%.

Consider `CCc1nnc(NC(=O)C2=C(C)C(=O)OC23CCCCCC3)s1`, for which the “% Inhibition @ 10 uM” value was 3.24%. As for `C1CC2CN(C3C4CC5CC(C4)CC3C5)CCN2C1` (stereo not shown), the “% Inhibition @ 10 uM” value is on record as -1.15%. Take `COC(=O)/C(=C/c1ccc2c(c1)OCO2)NC(=O)c1ccc(C(C)(C)C)cc1`: the “% Inhibition @ 10 uM” value is -1.81%. The value for `CCOC(=O)N1CCN(C(=O)CCCN2C(=O)CSc3nc(C)cc(C)c32)CC1` was -0.637%.

With `COc1cc(/C=C\C(=O)Nc2c3c(nn2-c2ccc(C)cc2C)CS(=O)(=O)C3)cc(OC)c1OC`, the “% Inhibition @ 10 uM” value is listed as 2.92%.

Consider `CC1(C)N=C(c2ccccc2)C(=S)N1`, for which the “% Inhibition @ 10 uM” value turned out to be 7.35%. Regarding `COc1ccccc1C1CC(c2ccc(Br)cc2)=NN1C(=O)CCC(=O)O` (stereo not shown), the “% Inhibition @ 10 uM” value is 17%. For the compound `Cc1ccc(C)c(NC(=O)c2cnoc2C)c1`, the “% Inhibition @ 10 uM” value was -3.45%. As for `CCOC(=O)c1cnc2c(OC)cc3c(c(C)c(C)n3C)c2c1O`, the “% Inhibition @ 10 uM” value was 0.9%. On to `CCNC(=O)/C(C#N)=C/c1c(Oc2ccc(OC)cc2)nc2c(C)cccn2c1=O`, for which the “% Inhibition @ 10 uM” value is -3.23%. Consider `CC(C)=CCCC(C)CN(CCN(C)C)Cc1ccccc1` (stereo not shown), for which the “% Inhibition @ 10 uM” value was -4.95%. For the compound `CCOC(=O)c1c(NC(=O)/C=C/C(=O)O)sc2c1CCC(C(C)(C)C)C2` (stereo not shown), the “% Inhibition @ 10 uM” value turned out to be 0.222%. The value for `COc1ccc(C(=O)Oc2c(Cc3ccccc3)c(=O)oc3ccccc23)cc1` was 0.685%. For `CC(C)CCN(Cc1ccco1)C(=O)Nc1cn(C)c(=O)c2ccccc12`, the “% Inhibition @ 10 uM” value was determined as 7.64%.

On to `CCCNC(=O)C1CCCN(c2nnc(C)c3c(C)n(-c4ccc(OC)cc4)nc23)C1` (stereo not shown), for which the “% Inhibition @ 10 uM” value is reported as 8.15%.
